# In PubChem BioAssay AID1347073 (National Center for Advancing Translational Sciences (NCATS), 2019):
# The whole screen tested about 45,000 compounds, of which about 200 (0.44%) were called active. About 7% were inconclusive and are not listed. Calls follow the shape of the dose curve; as a rule, active = well fitted activation curve with a large enough effect; inconclusive = small, poorly fitted or top-dose-only effect; inactive = no such curve, though single readings can be large or run the other way. The list shows a part of the results.
# Assay: qHTS of TDP-43 Inhibitors: NCGC Sytravon Library Screen; also: 0% is about no effect; nearly all actives have a fitted effect of over 55% in size
# Conditions: yeast TDP-43 toxicity rescue, BacTiter-Glo growth, 24 h; series mostly up to 46.1 µM; growth rescue (activation): at the top concentration
# Procedure, shortened: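 TDP-43-expressing yeast, pregrown in raffinose, seeded at OD600 0.02 in galactose medium with compound for 24 hr at 30 deg C. Growth read by BacTiter-Glo luminescence, so rescue of toxicity appears as activation.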
row,Compound,growth rescue (activation)
1,COc1ccccc1C(=O)NC(C)c1ccccc1 (stereo not drawn),inactive: 8.94%
2,Cc1ccc(C(=O)N/C(=C/c2ccco2)C(=O)NC2CCS(=O)(=O)C2)cc1 (stereo not drawn),inactive: 11.4%
3,COc1ccccc1CC(=O)NN1C(=O)c2ccccc2C1=O,inactive: 0.713%
4,CCOC(=O)CCCCC(=O)c1[nH]c(=O)[nH]c1CSc1nnc2c3ccccc3n(C(C)C)c2n1,inactive: 22.7%
5,O=C(COC(=O)/C=C/c1ccc(Br)o1)NCCCN1CCCC1=O,inactive: 16.3%
6,O=C(COC(=O)C1CCCO1)Nc1nc(-c2ccc(F)cc2)cs1 (stereo not drawn),inactive: 9.95%
7,Cc1cc(C)c(O)c(-c2cc(C(=O)NCCc3ccc(S(N)(=O)=O)cc3)[nH]n2)c1,inactive: 31.8%
8,O=C(Nc1ccc(F)cc1)C1CCN(S(=O)(=O)c2cccc3nonc23)CC1,inactive: 6.3%
9,COc1ccc2c(c1)c1nnc(SCC(=O)NC3CC3)nc1n2C,inactive: -4.18%
10,CC1CC(C)CN(C(=O)CSc2nnc(-c3ccco3)o2)C1 (stereo not drawn),inactive: 18.9%
11,CCCNC(=O)C1(C)CCN1C(=O)c1ccc(C(C)(C)C)cc1 (stereo not drawn),inactive: 7.63%
12,Cc1cc(/C=C2\NC(=S)N(C)C2=O)ccc1N1CCCC1,inactive: 13%
13,COc1ccc(C(=O)NC(=S)N(CCC(C)C)c2c(N)n(Cc3ccccc3)c(=O)[nH]c2=O)cc1,inactive: 14.2%
14,Cc1cccc(C(=O)NCc2ccc(S(N)(=O)=O)cc2)c1[N+](=O)[O-],inactive: -6.29%
15,CN(CC(=O)Nc1ccc(N2CCOCC2)cc1)C(=O)C1CCCC1,inactive: -3.43%
16,O=C1NCCN1CCNS(=O)(=O)c1ccc(F)cc1,inactive: -6.52%
17,CCOC(=O)c1ccc(NC(=O)/C=C/c2cccs2)cc1,inactive: 7.02%
18,CCNC(=O)C1(C)CCN(C(=O)c2ccc(OC(F)F)cc2)C1 (stereo not drawn),inactive: -18.6%
19,O=C(Nc1scc(-c2ccccc2)c1C(=O)O)c1ccccc1Cl,inactive: -13%
20,Cc1cccc(OCCC(=O)NCC(=O)Nc2cccc(C)c2C)c1,inactive: 17.5%
21,CC1=[N+](CC(=O)c2ccccc2)CCn2cccc21,inactive: 2.27%
22,Oc1ccc(O)c(Cc2nc3ccccc3[nH]2)c1,inactive: 2.58%
23,CCc1ccc(C(O)c2ncc(-c3cccc(C)c3)[nH]2)cc1 (stereo not drawn),inactive: 10.7%

row,Compound,growth rescue (activation)
1,CS(=O)(=O)c1ccc(C(=O)NCCN2C(=O)S/C(=C\c3cccnc3)C2=O)cc1[N+](=O)[O-],inactive: 3.72%
2,CC(=O)Nc1ccc(S(=O)(=O)NNC(=O)CCc2ccccc2)cc1,inactive: 12.5%
3,O=C(NCc1ccco1)C1CCN(c2ccc(S(=O)(=O)N3CCOCC3)cc2[N+](=O)[O-])CC1,inactive: 1.13%
4,Cc1cc(C)c(C(=O)Cn2nc(C(=O)O)c3ccccc3c2=O)cc1C,inactive: 22.8%
5,O=C(N/N=C/c1cccc(Cl)c1)c1c(O)c2c([nH]c1=O)CCCC2,inactive: 8.16%
6,O=C(CCNS(=O)(=O)c1c(Cl)cccc1Cl)OCC(=O)c1ccccc1F,inactive: -1.06%
7,Cc1ccn2cc(C34CC5CC(CC(C5)C3)C4)nc2c1,inactive: 5.9%
8,Cc1ccccc1/C=C/c1nc2ccccc2c(=O)[nH]1,inactive: 1.99%
9,CN(C(=O)CS(=O)(=O)Cc1ccccc1Cl)c1ccccc1,inactive: 17.3%
10,O=C(CC12CC3CC(CC(C3)C1)C2)Nc1ccccc1N1CCOCC1,inactive: 8.1%
11,COc1ccc(CCN(C)Cc2c(O)ccc3cc(Br)ccc23)cc1OC,inactive: 9.83%
12,c1ccc(-c2noc(-c3ccc4c(c3)OCO4)n2)cc1,inactive: 0.714%
13,CCOc1cc(/C=N/N=C2/NC(=O)C(CC(=O)O)S2)ccc1OS(=O)(=O)c1ccc(C)cc1 (stereo not drawn),inactive: 14.2%
14,CC(C)(C)NC(=O)COc1ccccc1C#N,inactive: 0.0885%
15,CCc1ccc(S(=O)(=O)c2ccc(-n3nc(C)cc3N)cc2)cc1,inactive: -5.33%
16,Cc1cccc(OCC(=O)NCCCNC(=O)c2ccco2)c1,inactive: -3.48%
17,Cc1cccnc1C(NC(=O)C1CCN(Cc2cn(C)c3ccccc23)CC1)c1ccc(Cl)cc1 (stereo not drawn),inactive: 3.99%
18,Cn1c(COc2ccccc2)nnc1SCC(=O)NC1CCCC1,inactive: 1.05%
19,CCC(C(=O)NCC1CCCO1)N(Cc1ccc(F)cc1)C(=O)CNS(=O)(=O)c1ccccc1 (stereo not drawn),inactive: 9.24%
20,CC(C)CNC(=O)C1CCCN(C(=O)NCc2ccccc2)C1 (stereo not drawn),inactive: -3.4%
21,COc1ccc(/C=N/NC(=O)c2snnc2C)c(OC)c1OC,inactive: 6.89%
22,CCOc1ccc(-c2n[nH]c(=S)c3ccccc23)cc1,inactive: 5.35%
23,CC(C)n1cnc2cc(NC(=O)c3ccco3)ccc21,inactive: -19.9%

row,Compound,growth rescue (activation)
1,COc1ccccc1Cn1c(-c2ccco2)nc2nc3ccccc3nc21,inactive: 31.1%
2,CC(C)/C=C1\CCc2c([nH]c3ccccc23)C1=O,inactive: 23.2%
3,COc1ccc(NC(C)=O)cc1S(=O)(=O)NC1CCSc2ccccc21 (stereo not drawn),inactive: 0.135%
4,CN1c2ccccc2C2(C)CCCC3=Cc4cc([N+](=O)[O-])cc([N+](=O)[O-])c4OC312 (stereo not drawn),inactive: -8.2%
5,O=C(COC(=O)/C=C/c1cccc(F)c1)NNC(=O)c1ccccc1,inactive: -0.206%
6,CCc1nc2ccc(C(=O)N3CCN(S(=O)(=O)CC)CC3)cn2c1N(C)C(=O)c1cccc(OC)c1,inactive: -10%
7,CN(CCc1ccccn1)C(=O)CCC1CCCN(C(=O)c2n[nH]c3c2CCCC3)C1 (stereo not drawn),inactive: 4.02%
8,Cc1ccc(N=Cc2c(C)[nH]n(-c3nc4ccccc4[nH]3)c2=O)cc1,inactive: -83.8%
9,CCn1cc(C(=O)NCC(C)C)c(=O)c2cc(F)c(N3CCN(C(=O)c4ccco4)CC3)cc21,inactive: 11.4%
10,CCc1cc(C(=O)OC)c(NC(=O)CC2SC(N)=NC2=O)s1 (stereo not drawn),inactive: -4.99%
11,Cc1ccc(NC(=S)N(CCN(C)C)C(C)c2ccco2)cc1C (stereo not drawn),inactive: 3.15%
12,CCOc1ccc(N2C(=O)S/C(=C\c3cc(OC)c(OC)c(OC)c3)C2=O)cc1,inactive: 4.14%
13,c1ccc(Nc2nc(-c3cccnc3)cs2)nc1,inactive: 13.7%
14,O=C(O)c1ccccc1-c1ccc(/C=C/c2cc(C(F)(F)F)[nH]c(=O)n2)o1,inactive: 9.74%
15,COc1ccc(C(=O)C2CCCN(C(=O)Cn3ccc(C)n3)C2)cc1OC (stereo not drawn),inactive: 16.6%
16,Cn1c(N)c(C(=O)COC(=O)c2cccs2)c(=O)n(C)c1=O,inactive: -8.15%
17,COc1cccc(N=C2NC(=O)/C(=C/c3cc([N+](=O)[O-])ccc3O)S2)c1,inactive: -2.77%
18,CC(CCc1ccccc1)NC(=O)c1ccc(NC(=O)c2ccccc2)cc1 (stereo not drawn),inactive: -1.35%
19,CSc1ccc(CN(C)C(C)C(=O)NCC2CCCCC2)cc1 (stereo not drawn),inactive: -6.95%
20,O=C(COC(=O)CNC(=O)c1ccc(Cl)cc1Cl)Nc1ccc(N2CCOCC2)cc1,inactive: 0.839%
21,Cc1noc(C(=O)Nc2cccnc2Cl)c1Cl,inactive: 4.8%
22,CCOC(=O)c1cc(C)sc1NC(=O)CSc1nnnn1C,inactive: -8.28%
